Among all 4,800 compounds or so, about 420 (8.8%) showed an effect of 50% or more. Some of the results follow.
test system: Plasmodium falciparum; assay: Confirmatory screen in NF54 nanoGlo assay, in single point, at 2uM, 72h; assay type: functional, Erythrocyte; conditions: timepoint 72 hour

Compound | % Inhibition [%]
COc1ccc2cc3n(c2c1)C[C@](C(=O)NC1CCCCCC1)(c1ccccc1)N(Cc1ccccc1Cl)C3=O | 3
Cc1cc(CS(=O)(=O)NCCOc2ccc(Cl)cc2)on1 | 2
O=S(=O)(Cc1cc(O)n(-c2ccccc2)n1)c1ccccc1 | -7
O=c1nc2n(nc1-c1ccccc1)C1(CCC1)Nc1ccccc1-2 | 74
c1ccc(CC2=NCCc3ccccc32)cc1 | 65
Cc1[nH]ccc(=O)c1Cc1c(Cl)cccc1Cl | -16
O=C(CN1CCC2(CC1)NC(c1ccc(OC(F)(F)F)cc1)=NO2)NCc1ccc(F)cc1 | -7
O=C(Nc1ccc2c(c1)OCCO2)N1CCC(O)CC1 | 0
Cc1ncc(CN(C)[C@@H](C)C(=O)Nc2ccc3c(c2)OC2(CCCCC2)O3)s1 | -4
O=C(c1cc2nc(-c3ccc(Cl)c(Cl)c3)cc(C(F)(F)F)n2n1)N1CCN(c2ccccc2)CC1 | -10
CN1CCN(c2ccc(F)cc2C(=O)NCc2ccc3cnn(C)c3c2)CC1 | -8
Oc1cc(-c2ccc3ccccc3c2)[nH]n1 | -11
O=C(OCC(=O)N1CCN(Cc2ccccc2)CC1)c1nccc2ccccc12 | 1
COc1cc(C(=O)NCCN2CCOCC2)cc2occc12 | -4
O=c1c2cc(F)c(F)cc2ncn1C[C@@H](O)CC1CCCC1 | -4
COc1ccc(-n2nc(C(=O)N3CCN(c4ncccn4)CC3)c(=O)cc2OC)cc1 | -24
CN(CC[C@H](O)C(F)(F)F)Cc1ccccc1 | -13
CC1CCCC(C)N1C(=O)CN(C)c1cccc2cccnc12 (centres undefined) | -7
Cc1cc(C(=O)N[C@@H](C)c2nc(-c3cccnc3)cs2)cc(O)n1 | 53
CCc1ccc(-c2n[nH]c3c2cnc2ccc(OC)cc23)cc1 | -1
C[N+]1(CCCC(=O)c2ccc3c(c2)OCCO3)CCC(c2ccccc2)C1 (centres undefined) | 49
CCCn1nc(-n2cnnc2)c(NC(=O)c2ccc3c(c2)OCO3)c1C | -4
CCc1ccc(NC(=O)Cn2c(=O)ncc3cc(S(=O)(=O)N4CCCC[C@@H]4C)ccc32)cc1 | 5

Compound | % Inhibition [%]
O=S(=O)(Nc1nncs1)c1cccs1 | -10
Cc1ccc2nc(O)c3nnc(C)n3c2c1 | -2
Cn1ccc(C(=O)Nc2ccc(-c3ccccc3)cn2)cc1=O | -17
CC[C@](C)(NC(=O)Nc1cncnc1OC)c1nc(C)cs1 | 2
O=c1ccc(F)cn1Cc1csc(C2CCCC2)n1 | -1
CCCC(=O)N1CCC(OC(=O)c2cnc3ccc(F)cc3c2)CC1 | -2
CN1CCC(n2ncc3[nH]c(-c4ccc(C(F)(F)F)cc4)nc32)CC1 | 96
COC(c1ccc(-c2ccc(OC3CC3)cc2)cc1)C(C)N (centres undefined) | -3
CC1(C)C[C@](C)(c2ccc(N)cc2)c2cc(N)ccc21 | -4
NC(=O)C1C(=O)NC(c2ccccc2)C=C1c1ccccc1 (centres undefined) | -8
CS(=O)(=O)Cc1ccc(Cl)cc1NC1CCCC(C2CC2)C1 (centres undefined) | 1
O=S(=O)(Cc1ccon1)N1CCN(Cc2cccnc2)CC1 | 0
Cc1cc(=O)n(CC(=O)N2CCC(C)CC2)c(-c2ccc(F)cc2)n1 | -4
O=S1(=O)CCC(NCCC2CCCO2)c2cc(F)c(F)cc21 (centres undefined) | -5
O=C(N[C@@H](Cn1nccn1)c1ccccc1)c1cc(Br)ccc1Cl | 65
CCN1C(=O)c2ccc(NC(=O)c3ccncc3)c3cccc1c23 | 0
NC(=O)c1nnn(CC(=O)c2ccc(Cl)cc2)c1C(N)=O | -9
Cc1cc(C(=O)NCc2ccncc2)no1 | -11
CC(C)CC[C@@H](CCNC1CCN(C)CC1)c1ccc(Cl)cc1 | 80
CC(C)NC(=O)N(C)Cc1ccc(F)cc1 | 0
O=C(NCC1CC1)c1cn[nH]c1-c1ccccc1 | -1
CC[C@H](C)S(=O)(=O)NC(=O)Cc1c(C)noc1C | 5
CN(C)C(=O)CN1CCc2cccc(NC(=O)OC(C)(C)C)c21 | 1

Compound | % Inhibition [%]
O=C(C[C@H]1CCN(C(=O)c2ccc(F)cc2)C1)N1CCOCC1 | -10
CC1=CC(C2CC(=O)N(c3ccc(Cl)cc3)C2=O)CC2C(=O)N(c3ccc(Cl)cc3)C(=O)C12 (centres undefined) | -1
Cc1nc(NC(=O)NCCn2ncnn2)sc1C | 2
O=C(NCCc1ccc(O)cc1)c1ccc2n[nH]c(=O)n2c1 | -27
CCc1nnc(NC(=O)C2(C)COC(c3ccccc3)OC2)s1 (centres undefined) | 3
Cc1ccc(N(C)CC(=O)N2CCC2)c(Br)c1 | -5
CCN(C(=O)Cn1c(=O)n(Cc2ccc(F)cc2)c(=O)c2ccccc21)c1cccc(C)c1 | 7
CCOCCCNC/C=C/c1ccccc1 | -5
N#Cc1cccnc1-n1cc(NC(=O)NCCC2(O)CCC2)cn1 | -11
COc1ccc(-c2nn(C3CCCC3)c(-c3ccc(OC)c(OC)c3)c2Cl)cc1OC | -4
Cc1nonc1N(Cc1ccc(Cl)cc1Cl)S(=O)(=O)c1ccccc1 | -22
O=C(Nn1cnc2ccccc2c1=O)c1cnccn1 | 2
Cn1nc(C(=O)Nc2nnc[nH]2)ccc1=O | 4
CCC(C)(C)c1ccc(OCC(=O)Nc2cccc(C(=O)CC(=O)Nc3ccc(Oc4ccccc4)cc3)c2)c(C(C)(C)CC)c1 | -4
Cn1nc(C(=O)NCc2ccc(F)cc2)cc1C(=O)NCc1ccc(F)cc1 | -4
O=C(c1ccccn1)N1CC(n2cnnc2[C@@H]2CCCO2)C1 | -8
CNc1nc(N2C[C@H](C)[C@@](O)(C3CC3)C2)nc2c1CCC2 | -11
O=C(Cn1c(=O)n(Cc2ccco2)c(=O)c2ccccc21)Nc1cccc(Br)c1 | 6
O=C(CCC1CCCCC1)Nc1ncccn1 | -7
CCC(C(=O)Nc1cc(C)on1)(C(F)(F)F)C(F)(F)F | 2
CNC(=O)C(=O)Nc1ccccc1C(F)(F)F | 2
Oc1csc(Cc2nc(C(F)(F)F)cs2)n1 | -10
COCc1cc(C)n(CC#N)c(=O)c1C#N | 11
